Data as given in PubChem BioAssay AID894 (National Center for Advancing Translational Sciences (NCATS), 2007).
Values joined by “and” are separate entries in the source; they are usually repeats but may differ in a detail not shown here. Equal entries are not always repeated. Screen size: about 150,000 compounds; about 6,500 (4.3%) were called active. Inconclusive means that the source gave no clear call. Such entries were picked first, then a sample of the others. Calls follow the shape of the dose curve; as a rule, active = well fitted inhibition curve with a large enough effect (not every such curve was filed as active); inconclusive = small, poorly fitted or top-dose-only effect, or another doubt; inactive = no such curve, though single readings can be large or run the other way. No potency is given beside an inconclusive call; the fits are too rough.

molecular target: 15-hydroxyprostaglandin dehydrogenase [NAD(+)] (Homo sapiens) (UniProt P15428); assay: qHTS Assay for Inhibitors of HPGD (15-Hydroxyprostaglandin Dehydrogenase); settings: purified HPGD, NADH fluorescence kinetic, PGE2 substrate; activity change, negative = inhibition: stronger effect = lower value
Chain of UniProt P15428 (P15428 whole entry, looked up): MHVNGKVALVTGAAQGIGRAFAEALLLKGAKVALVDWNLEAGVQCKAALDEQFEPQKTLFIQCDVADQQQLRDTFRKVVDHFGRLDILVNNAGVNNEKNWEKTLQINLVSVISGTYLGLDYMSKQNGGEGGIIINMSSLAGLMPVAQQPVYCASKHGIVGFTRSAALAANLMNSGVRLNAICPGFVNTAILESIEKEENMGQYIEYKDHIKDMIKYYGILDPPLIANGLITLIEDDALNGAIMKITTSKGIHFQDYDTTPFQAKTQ
Procedure, shortened: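 20 nM HPGD preincubated 15 min at room temperature with compound in 50 mM Tris-HCl pH 8, 0.01% Tween 20. Started with 1 mM NAD+ and 30 uM prostaglandin E2; NADH fluorescence (360/450 nm) read 5 times over 30-s intervals, last minus first.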
% is scaled to controls: 0 for no effect and ±100 for the full control effect; potency is read from the fitted curve at half-maximal effect; tags tell the direction and shape of the fitted curve.

| Structure (SMILES) | Potency | activity change, negative = inhibition |
| --- | --- | --- |
| CC1CC(C)CN(c2ncc3c(n2)CC(c2ccccc2Cl)CC3=O)C1 (stereo not given) | inconclusive [inhibitor, partial curve] | – |
| Cc1ccc2[nH]c(=O)c(CN(CC3CCCO3)S(=O)(=O)c3cccc4nsnc34)cc2c1 (stereo not given) | – | inactive: -8.41% |
| CCS(=O)(=O)c1ccc(C(=O)Nc2ccccc2)c(Cl)c1Cl | inconclusive [inhibitor, partial curve, poor fit] | – |
| CCOc1cc(C=O)ccc1OCCSc1ccc(Cl)cc1 | inconclusive [inhibitor, partial curve] | – |
| CN(C)CCN(C(=O)/C=C/c1cccs1)c1nc2c(F)cc(F)cc2s1 | inconclusive [inhibitor, single point] | – |
| CCCc1cc(COC)c(C#N)c(=O)[nH]1 | inconclusive [inhibitor, partial curve] | – |
| O=[N+]([O-])c1cccc(/C([O-])=C(/C(=S)Nc2cccc3ccccc23)[n+]2ccccc2)c1 | inconclusive [inhibitor, partial curve] | – |
| CCOC(=O)c1cc(CC)sc1NC(=O)c1cc(OCC)c(OCC)c(OCC)c1 | inconclusive [inhibitor, partial curve] | – |
| COC(=O)c1c(N)c2ccccc2[nH]c1=O | inconclusive [inhibitor, single point] | – |
| COc1ccccc1CNS(=O)(=O)c1c(C)noc1C | – | inactive: -6.39% |
| O=C1OCC(c2ccccc2)=C1c1ccc(S(=O)(=O)N2CCOCC2)s1 | inconclusive [inhibitor, partial curve] | – |
| Cc1cc(C)c(C#N)c(SCc2ccc3c(c2)OCO3)n1 | inconclusive [inhibitor, partial curve] | – |
| Cn1c(Cl)c(/C=N/OC(=O)c2ccc(Cl)cc2)c2ccccc21 | inconclusive [inhibitor, partial curve] | – |
| CCCOc1ccc(N2C(=O)CC(N(C(=O)c3ccco3)c3ccc(OCCC)cc3)C2=O)cc1 (stereo not given) | – | inactive: -1.48% |
| COc1ccc2[nH]c(=O)c(CN(C(=O)c3cccnc3)c3ccccc3)cc2c1 | inconclusive [inhibitor, partial curve] | – |
| CCOC(=O)c1c(-c2ccccc2)[nH]c2ccc(O)cc12 | inconclusive [inhibitor, partial curve] | – |
| Cc1ccc(OCC(=O)c2ccc3c(c2)CCCC3)cc1C | active: 31.6 µM | – |
| O=C(COc1ccc(/C=N/NC(=O)c2cc3ccccc3o2)cc1Cl)Nc1ccccc1 | inconclusive [inhibitor, partial curve] | – |
| COc1ccc2oc(C(F)(F)C(F)F)cc(=O)c2c1 | inconclusive [inhibitor, partial curve] | – |
| C=CCOC(=O)N[C@H](/C(C(=O)OC)=C(\C)NCc1ccccc1)c1cccc(OC)c1 | – | inactive: -8.36% |
| Cc1ccc(CNc2cnccn2)cc1 | inconclusive [inhibitor, partial curve] | – |
| CCOP(=O)(O)c1ccccc1OCCOCCOc1ccccc1P(=O)(O)OCC | – | inactive: 1.92% |
| CC(C)CCC(O)(CCC(C)C)C(=O)NNc1ccccc1 | – | inactive: -5.41% |

| Structure (SMILES) | Potency | activity change, negative = inhibition |
| --- | --- | --- |
| CCCCNc1nc(C)nc2c1nc(-c1ccccc1)n2CCCCN(CC)CC | inconclusive [inhibitor, partial curve] | – |
| O=C(Cn1c(=O)n(Cc2ccco2)c(=O)c2c3c(sc21)CCCCC3)Nc1ccccc1 | inconclusive [inhibitor, partial curve] | – |
| O=C(/C=C/Nc1ccc(F)cc1F)c1cccs1 | inconclusive [inhibitor, partial curve] | – |
| CCCC(=O)c1cc2c(cc1NC(=O)c1cccs1)OCCO2 | inconclusive [inhibitor, partial curve] | – |
| Cc1cccc(OCc2nnc(SCc3cc(=O)n4cc(Br)ccc4n3)o2)c1 | inconclusive [inhibitor, partial curve] | – |
| O=C(COC(=O)c1ccccn1)NCc1ccccc1Cl | – | inactive: -9.41% |
| COc1ccc(-c2nnc(-c3cc4ccccc4oc3=O)o2)cc1 | inconclusive [inhibitor, partial curve] | – |
| COc1cccc(OC)c1-c1nn2c(-c3cc(-c4ccccc4)n[nH]3)nnc2s1 | active: 12.6 µM | – |
| Cc1ccc(S(=O)(=O)NCCCC(=O)C=[N+]=[N-])cc1 | – | inactive: -3.92% |
| Cn1c(=O)c2cc(S(=O)(=O)N3CCN(c4cccc(C(F)(F)F)c4)CC3)ccc2n(C)c1=O | inconclusive [inhibitor, single point] | – |
| CC(NC(=S)Nc1c(Br)cccc1OC(F)F)C(C)(C)C (stereo not given) | – | inactive: -4.61% |
| CC1(C)CC(CC(=O)NNc2nc(-c3ccccc3)cs2)C(=O)O1 (stereo not given) | – | inactive: -10.7% |
| O=C(O)c1cc(C(F)(F)F)nc2ccccc12 | – | inactive: 4.02% and inactive: -5.64% |
| CC1=CC[C@@]23CCCN2C(=O)CCC[C@H]3C1 | – | inactive: -5.95% |
| CCCCC(=O)Nc1cccc(-c2nc3ncccc3o2)c1 | inconclusive [inhibitor, partial curve] | – |
| CCOC(=O)c1ccc(NC(=O)CC2S/C(=N/N=C/c3c[nH]c4ccccc34)NC2=O)cc1 (stereo not given) | inconclusive [inhibitor, single point] | – |
| S=c1[nH]c2cc(Cl)ccc2s1 | active: 28.2 µM | – |
| CCCCCC(C)N (stereo not given) | – | inactive: -12.2% |
| COc1cc(/C=C(\C#N)c2ccccn2)ccc1OCC(=O)Nc1cccc(C(F)(F)F)c1 | inconclusive [inhibitor, partial curve] | – |
| Cc1nonc1NC(=O)Nc1cccnc1 | – | inactive: -7.56% |
| COc1cc2c(cc1OC)C1=C(C#N)CN(C3CCCCC3)CN1CC2 | inconclusive [inhibitor, single point] | – |
| CCc1ccc2c(c1)c1nnc(NN)nc1n2CC | inconclusive [inhibitor, partial curve, poor fit] | – |
